Test results reported in PubChem BioAssay AID1347165 (National Center for Advancing Translational Sciences (NCATS), 2019).
The campaign covered roughly 220,000 compounds. About 5,700 (2.6%) were called active. This list was built around the results that the source calls inconclusive (neither active nor inactive); the mix of calls is not that of the screen. Calls come from the whole dose curve; as a rule, active = well fitted inhibition curve with a large enough effect; inconclusive = small, poorly fitted or top-dose-only effect; inactive = no such curve, though single readings can be large or run the other way. Where the call is inconclusive, the potency comes from a doubtful curve fit.

target: Lysine-specific demethylase 5B (Homo sapiens) (UniProt Q9UGL1); assay: Primary screen for KDM5B Histone Demethylases FDH-coupled qHTS; settings: FDH-coupled NADH fluorescence (FDH is formaldehyde dehydrogenase); series mostly up to 57.7 µM; note: nearly all actives have a fitted effect of over 70% in size
Summary of the method: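 Coupled FDH/NAD⁺ fluorescence readout. KDM5BΔAP 200 nM final; compound titration, 10 min RT preincubation; substrate mix 12.5 µM H3K4me3, 25 µM 2-OG, 50 µM Fe(II), 100 µM ascorbate, 0.25 mM NAD⁺, 0.25 U/mL FDH; ΔRFU over 30 min.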
Potency is the fitted concentration of half-maximal effect; tags give direction and shape of the fitted curve.

Row | Structure (SMILES) | Potency
1 | O=C(CSc1nc(-c2cccs2)cc(C(F)(F)F)n1)Nc1ccccc1Cl | inconclusive: 15.8 µM [inhibitor, partial curve, poor fit]
2 | Cc1ccc(CNC(=O)c2ccc(NC(=O)c3nsc4ccccc34)cc2)cc1 | inconclusive: 35.5 µM [inhibitor, partial curve, poor fit]
3 | O=Cc1ccc(N2CCN(C(=O)N3CCCC3)CC2=O)cc1 | inconclusive: 126 µM [inhibitor, partial curve, poor fit]
4 | CCCOc1ccc(CNC(=O)c2cc3oc4ccccc4c3n2C)cc1 | inconclusive: 15.8 µM [inhibitor, partial curve, poor fit]
5 | Cc1cc(=O)oc2cc(NC(=O)Cc3ccccc3)ccc12 | inconclusive: 15.8 µM [inhibitor, partial curve, poor fit]
6 | O=C(Nc1ccccc1)c1cc2n(n1)CC(c1ccc(Br)cc1)OC2 (stereo not given) | active: 31.6 µM
7 | COCCn1c(CO)nnc1C1CC(NC(=O)c2cccc(C#N)c2)C1 (stereo not given) | inactive
8 | Cn1c(-c2cn(C3CCNCC3)nn2)nc2ccccc21 | inconclusive: 0.199 µM [inhibitor, partial curve, poor fit]
9 | c1ccc(C(Sc2cccc3cccnc23)c2ccccc2)cc1 | inconclusive: 31.6 µM [inhibitor, partial curve, poor fit]
10 | CCNC(=O)NC(=O)CSc1nc(C2CC2)nc2ccccc12 | inactive
11 | NC(=S)NNc1ccccc1 | inconclusive: 3.55 µM [inhibitor, full curve, poor fit]
12 | N#Cc1cccc(N2CCC3(CC(=O)NC3=O)C2)n1 (stereo not given) | active: 28.2 µM
13 | CC(=O)N1CCC(C2CCN(Cc3ccc(C)cn3)C2)CC1 (stereo not given) | inconclusive: 17.8 µM [inhibitor, partial curve, poor fit]
14 | CN(c1ccccc1)c1ccc2nnc(-c3cc(C(=O)Nc4ccccn4)ccn3)n2n1 | active: 11.2 µM
15 | Cc1ccc2nc(NCCc3ccc(Cl)cc3)c3nncn3c2c1 | inconclusive: 28.2 µM [inhibitor, partial curve, poor fit]
16 | CC(C)c1ccc(Nc2c(-c3ccsc3)nc3ccc(Cl)cn23)cc1 | inactive
17 | CC1CCCCN1CCNC(=O)CCCc1nc2ccccc2[nH]1 (stereo not given) | inactive
18 | O=C(N[C@@H]1C[C@H](Cn2cc(-c3cccnc3)nn2)[C@@H](O)[C@H]1O)c1ccccc1 | inconclusive: 11.2 µM [inhibitor, partial curve, poor fit]
19 | Cc1ccc(CN2C[C@@H](CO)[C@H](NC(=O)c3ccccc3)C2)nc1 | inconclusive: 15.8 µM [inhibitor, partial curve, poor fit]
20 | CCCCN(C)CC(O)Cn1cc(/C=C/C(=O)c2ccc(OCC)cc2)c2ccccc21 (stereo not given) | inconclusive: 35.5 µM [inhibitor, single point]
21 | Cc1nc(CN(C)Cc2nc(-c3cccc(Cl)c3)oc2C)no1 | inconclusive: 35.5 µM [inhibitor, partial curve]
22 | O=c1ccc2ccc(OCc3ccccc3)cc2o1 | inconclusive: 35.5 µM [inhibitor, partial curve, poor fit]

Row | Structure (SMILES) | Potency
23 | CCCCC(=O)Nc1cccc(-c2nc3ccccc3s2)c1 | inconclusive: 15.8 µM [inhibitor, partial curve, poor fit]
24 | CNC(=O)CCn1ncc2cc(OCc3ccccc3-c3ccsc3)ccc21 | inconclusive: 35.5 µM [inhibitor, single point]
25 | CN(c1ccc(Cl)cc1)S(=O)(=O)c1nnc(NC(=O)c2ccco2)s1 | inconclusive: 15.8 µM [inhibitor, partial curve, poor fit]
26 | COc1cccc(NC(=O)c2ccc3c(c2)N(C)C2CCCN2C3=O)c1 (stereo not given) | inconclusive: 25.1 µM [inhibitor, single point]
27 | Cc1n[nH]c(C)c1C(N)C(=O)N1CCN(c2ccc3nccn3n2)CC1 (stereo not given) | active: 28.2 µM
28 | CC(C)NC(=O)c1ccc(N2CC3CC(C2)[C@H]2CCCC(=O)N2C3)nc1 (stereo not given in full) | inconclusive: 20 µM [inhibitor, partial curve, poor fit]
29 | O=C(N/N=C/c1c[nH]c2ccccc12)c1cc(Cl)ccc1O | inconclusive: 35.5 µM [inhibitor, single point]
30 | CCC1CCC(C(=O)Nc2ccc3ccccc3c2)CC1 (stereo not given) | inactive
31 | CCC(C(=O)N1CCc2nc(NC)nc(C(=O)N3CCCC3)c2C1)n1cccn1 (stereo not given) | inconclusive: 31.6 µM [inhibitor, single point]
32 | COc1ccc(C(=O)Nc2ccc(-c3noc([C@@H]4CCCN4Cc4cnc5ccccc5c4)n3)cn2)cc1 | inconclusive: 31.6 µM [inhibitor, single point]
33 | CCOc1ccc(NC(=S)NS(=O)(=O)c2cc(Br)ccc2OCC)cc1 | inconclusive: 25.1 µM [inhibitor, single point]
34 | O[C@@H]1C[C@@H](c2nc(-c3ccccn3)no2)N(Cc2cc3ccccc3o2)C1 | active: 31.6 µM
35 | Cc1nc2cc(NC(C)C(=O)Nc3ccc(C(N)=O)cc3)ccc2o1 (stereo not given) | inconclusive: 15.8 µM [inhibitor, partial curve, poor fit]
36 | COCCC(=O)N1CCC2(CC1)NCCc1c2[nH]c2ccc(OC)cc12 | inconclusive: 35.5 µM [inhibitor, partial curve, poor fit]
37 | COc1ccc(CN2CCC3(Cc4ccccc4CNC3=O)C2)cn1 (stereo not given) | inactive
38 | COc1ccccc1/C=C(\C#N)C(=O)NCC1CCCO1 (stereo not given) | inconclusive: 15.8 µM [inhibitor, partial curve, poor fit]
39 | CCCC(=O)Nc1c(C(=O)OCC)[nH]c2ccc(F)cc12 | inconclusive: 20 µM [inhibitor, partial curve, poor fit]
40 | COc1ccc(CN2C=C(C(=O)OCc3c(C)noc3C)C(C)=NS2(=O)=O)cc1 | inactive
41 | CCc1nccn1CCC(=O)N1CCc2c([nH]c3ccccc23)C1CC(C)C (stereo not given) | inconclusive: 35.5 µM [inhibitor, single point]
42 | COc1ccccc1-c1nnc(SCc2csc(Nc3ccc(C)cc3)n2)o1 | inconclusive: 39.8 µM [inhibitor, partial curve, poor fit]
43 | O=C(/C=C/c1ccco1)OC(C(=O)c1ccccc1)c1ccccc1 (stereo not given) | inconclusive: 39.8 µM [inhibitor, single point]
44 | CC(C)Oc1ccc(CNC(=O)c2cnc3sc(N4CCCCCC4)nn3c2=O)cc1 | inconclusive: 15.8 µM [inhibitor, partial curve, poor fit]

Row | Structure (SMILES) | Potency
45 | c1cc(-c2noc(CSc3nnnn3C3CCCC3)n2)cs1 | inactive
46 | Cn1c(=O)c2c(-c3ccccc3Cl)n(-c3cccc(O)c3)cc2n(C)c1=O | inconclusive: 25.1 µM [inhibitor, partial curve, poor fit]
47 | CN1CC[C@H]2COC(=O)N2c2cc(F)ccc2C1 | inactive
48 | CC(C)CCn1c(=O)c2sccc2n2c(CCCC(=O)Nc3ccc(F)c(Cl)c3)nnc12 | inconclusive: 3.16 µM [inhibitor, partial curve, poor fit]
49 | CCOC(=O)C(NC(=O)/C=C/c1ccccc1OC)C(=O)OCC | inconclusive: 25.1 µM [inhibitor, partial curve, poor fit]
50 | Cc1ccc(NC(=O)c2cc(-c3cccs3)nc3ccccc23)c(C)c1 | inconclusive: 31.6 µM [inhibitor, partial curve, poor fit]
51 | Cc1ccc(N2CCN(C(=O)Nc3cn(CC(C)C)c(=O)c4ccccc34)CC2)c(C)c1 | inconclusive: 15.8 µM [inhibitor, partial curve, poor fit]
52 | CC(CC(=O)C(C#N)C(=O)Nc1ccccc1F)c1ccc(F)cc1 (stereo not given) | inactive
53 | CCN(CC)S(=O)(=O)c1ccc(C(C)NC(=O)c2nn(C)c(=O)c3ccccc23)cc1 (stereo not given) | inactive
54 | Cc1ccc(C(=O)N2C3CCCC2CC(=O)C3)cc1 | inconclusive: 12.6 µM [inhibitor, partial curve, poor fit]
55 | O=C(c1ccco1)N1CCN(C(=O)c2cc(=O)[nH]c3ccccc23)CC1 | inconclusive: 28.2 µM [inhibitor, single point]
56 | Cc1cc(N)cc(-c2nc3cc(C(C)C)ccc3o2)c1O | inconclusive: 31.6 µM [inhibitor, partial curve, poor fit]
57 | CN(C)c1ccc(CN2CCn3c(nnc3C3CCNCC3)C2)cc1 | inconclusive: 39.8 µM [inhibitor, partial curve]
58 | Cn1nc(-c2nc(C3CCOC3)no2)cc1-c1ccccc1 (stereo not given) | inactive
59 | COCC(=O)NC[C@H]1CCN(C2CCSCC2)C[C@H]1N(C)C | inconclusive: 31.6 µM [inhibitor, partial curve, poor fit]
60 | COc1cccc(-c2cc(C(=O)NCc3cc(C)on3)c3c(c2)N(C)CCO3)c1OC | active: 28.2 µM
61 | O=C(c1ccco1)N1CCN(C(=O)C2NCCc3[nH]cnc32)CC1 (stereo not given) | inconclusive: 7.08 µM [inhibitor, partial curve]
62 | C=CCOc1ccc(C(=O)Nc2ccc(C)c(C)c2)cc1 | inactive
63 | Cc1ccc(CNC(=O)N2c3ccccc3CC2c2nc(C3CC3)no2)cc1 (stereo not given) | inconclusive: 15.8 µM [inhibitor, partial curve]
64 | COC(=O)c1ccc2nc(C[C@@H]3C[C@@H](C(C)C)[C@H](CNS(=O)(=O)c4ccccc4)C=C3C)[nH]c2c1 | inconclusive: 35.5 µM [inhibitor, single point]
65 | O=C1c2ccccc2NC(c2cccc(F)c2)N1Cc1ccccc1 (stereo not given) | inconclusive: 12.6 µM [inhibitor, partial curve, poor fit]
